{"source": "PubChem BioAssay AID1508623", "about": "(National Center for Advancing Translational Sciences (NCATS), 2021)", "note": "Screen size: about 48,000 compounds; about 450 (0.94%) were called active. Another 19% or so got no clear call; they are omitted. The call rests on the fitted dose curve; in most records, active means well fitted inhibition curve with a large enough effect; inconclusive means small, poorly fitted or top-dose-only effect; inactive means no such curve, though single readings can be large or run the other way. This is one part of the list. Potency means the concentration at half of the fitted maximal effect."}
{"test": "Primary qHTS for Identification of Small Molecule Inhibitors of Huntingtin Promoter Activity; further: nearly all actives have a fitted effect of over 50% in size", "settings": "HEK293 HTT promoter firefly luciferase reporter (activity 0% = vehicle and -100% = no light), 24 h; series mostly up to 57.5 µM; activity change, negative = inhibition: at the top concentration", "text": "Assay Provider: Russell L. Margolis M.D.\nDepartment Neurology, Johns Hopkins University School of Medicine, Baltimore, MD\nHuntington's Disease (HD) is a neurodegenerative disorder caused by a CAG repeat expansion in exon 1 of huntingtin (HTT). While there are currently no disease-modifying treatments for HD, recent efforts have focused on development of nucleotide-based therapeutics to lower HTT expression. As an alternative to siRNA or oligonucleotide methods, we hypothesized that suppression of HTT expression might be accomplished by small molecules that either (1) directly decrease HTT expression by suppressing HTT promoter activity or (2) indirectly decrease HTT expression by increasing the promoter activity of HTT-AS, the gene antisense to HTT that appears to inhibit expression of HTT.\nWe developed and employed a high throughput screen for modifiers of HTT and HTT-AS promoter activity using luminescent reporter HEK293 cells; of the 52,041 compounds tested, we identified 898 replicable hits. We used a rigorous stepwise approach to assess compound toxicity and the capacity of the compounds to specifically lower huntingtin protein in 5 different cell lines, including HEK293 cells, HD lymphoblastoid cells, mouse primary neurons, HD iPSCs differentiated into cortical-like neurons, and HD hESCs. We found no compounds which were able to lower huntingtin without lowering cell viability in all assays, though the potential efficacy of a few compounds at non-toxic doses could not be excluded.\nSEQUENCE No. (1, 2, 3, etc.); […] (e.g., Cells, Incubation, Reagent, etc.); VALUE and DESCRIPTION.\n1; Reagent; 4 uL; 2,500 Hek293 luciferase reporter cells per wells\n3; Compound; 23 nL; Control inhibitor / compound library\n5; Reagent; 2.5 uL; Firefly Luc reagent; Dual-Glo Luciferase Reporter Assay System (Promega)\n6; Time; 10 min; room temperature incubation\n7; Detection; Luminescence; FLuc\nNOTES (numbers refer to sequence above)\n1; High-throughput screening, measuring luminescence from a Hek293 luciferase reporter, was performed in 1,536 well white-walled tissue-culture treated plates. 2,500 cells were plated in 4 µL of Opti-MEM per well using a Multidrop Combi Reagent Dispenser (ThermoFisher).\n2; Assay plates were cultured for 24 hours.\n3; Control inhibitor (PTC124; final concentration of 50 uM) and compound library (at final concentrations of 460 nM - 57.5 uM) were added to the assay plate using the Kalypsis Pintool Robotic System equipped with 1536 pinheads.\n4; Cells were then incubated for 24 hours at 37 degrees C prior to luminescence measurements.\n5; In all cases, luminescence was measured using the Dual-Glo Luciferase Reporter Assay System (Promega) following the manufacturer's instructions.\n6; Room temperature incubation.\n7; Luminescence signal was obtained using the PerkinElmer ViewLux plate reader. Results were normalized to vehicle control (0% activity) and zero RLU (-100% activity)."}
{"smiles": "Cc1ccc(/C=C/c2onc(C)c2S(=O)(=O)N2CCC(C(=O)Nc3ccccc3C(F)(F)F)CC2)cc1", "activity change, negative = inhibition": "inactive: -6.24%"}
{"smiles": "CC(=O)c1ccc(N2CCN(c3ncnc4c3c(-c3ccccc3)cn4-c3ccc(Cl)cc3)CC2)cc1", "activity change, negative = inhibition": "inactive: -16.9%"}
{"smiles": "CCCCSc1nnc2n(-c3ccc(OC)cc3)c(=O)c3c4c(sc3n12)COC(C(C)C)C4", "note": "(stereo not given)", "activity change, negative = inhibition": "inactive: -23%"}
{"smiles": "COc1cccc(CNC(=O)Cn2nc(-c3ccc(Cl)cc3)ccc2=O)c1", "activity change, negative = inhibition": "inactive: -1.96%"}
{"smiles": "CC(=O)c1ccc(NC(=O)c2cc(C)nc3c2c(C)nn3-c2ccc(C)cc2)cc1", "activity change, negative = inhibition": "inactive: -31.7%"}
{"smiles": "COc1ccc(-n2c(=O)c3c(c4cc(OC)ccc4n3C)n(Cc3cccc(C)c3)c2=O)cc1", "activity change, negative = inhibition": "inactive: -4.67%"}
{"smiles": "CCC(C(=O)Nc1cccc(-c2nc3cccnc3s2)c1C)c1ccccc1", "note": "(stereo not given)", "activity change, negative = inhibition": "inactive: -20.2%"}
{"smiles": "COc1ccc(-n2cc(C(=O)NCCc3cc(OC)ccc3OC)c3ccccc3c2=O)cc1", "activity change, negative = inhibition": "inactive: -18.8%"}
{"smiles": "CCOC(=O)c1c(C)[nH]c(C)c1S(=O)(=O)N1CCCC(C(=O)NCc2ccc(N(C)C)cc2)C1", "note": "(stereo not given)", "activity change, negative = inhibition": "inactive: -8.68%"}
{"smiles": "CC(C)CC(=O)Nc1nnc(S(=O)(=O)N(C)Cc2ccc(Cl)cc2)s1", "activity change, negative = inhibition": "inactive: 0.649%"}
{"smiles": "CC1=C(C(=O)Nc2ccc(C)cc2C)C(c2cccs2)n2nc(SCc3cccc(C)c3)nc2N1", "note": "(stereo not given)", "activity change, negative = inhibition": "inactive: -8.09%"}
{"smiles": "CNC(=O)CSc1cn(CC(=O)N2CCCCCC2)c2ccccc12", "activity change, negative = inhibition": "inactive: -10.5%"}
{"smiles": "COc1ccc(OC)c(NC(=O)CN2C(=O)CC(C)Sc3ccccc32)c1", "note": "(stereo not given)", "activity change, negative = inhibition": "inactive: -14.2%"}
{"smiles": "CC(=O)CCC(=O)O", "activity change, negative = inhibition": "inactive: -4.91%"}
{"smiles": "O=C(CCOc1ccccc1)N(Cc1cccnc1)c1nc2ccc(Cl)cc2s1", "activity change, negative = inhibition": "inactive: -9.33%"}
{"smiles": "CCOC(=O)c1ccc(NC(=O)CSc2nc3cc4ccccc4cc3[nH]2)cc1", "activity change, negative = inhibition": "inactive: -13.3% [at 11.5 µM]"}
{"smiles": "Cc1nc2nc(NC(=O)c3ccc(C(C)(C)C)cc3)[nH]n2c(=O)c1Cc1ccccc1", "activity change, negative = inhibition": "inactive: -10.6%"}
{"smiles": "COc1ccc(CNC(=O)Cn2ccc3cc(S(=O)(=O)N4CCCCC4)ccc32)cc1OC", "activity change, negative = inhibition": "inactive: -15.7%"}
{"smiles": "Cc1ccc(-n2c(=O)c3c4c(sc3n(Cc3cc(=O)n5ccccc5n3)c2=O)CCC4)cc1C", "activity change, negative = inhibition": "inactive: -2.37%"}
{"smiles": "COc1cc(CN2CCN(S(=O)(=O)c3ccc(NC(C)=O)cc3)CC2)cc(OC)c1OC", "activity change, negative = inhibition": "inactive: -9.29%"}
{"smiles": "C/C=C(/C(=C/C)c1ccc(OC(C)=O)cc1)c1ccc(OC(C)=O)cc1", "activity change, negative = inhibition": "inactive: -11.4%"}
{"smiles": "CCOC(=O)c1sc2ccccc2c1S(=O)(=O)Nc1ccc(C(C)=O)cc1", "activity change, negative = inhibition": "inactive: -0.43%"}
{"smiles": "Cc1cccc(Cn2c(=O)n(Cc3ccccc3)c(=O)c3c2c2cc(C)ccc2n3C)c1", "activity change, negative = inhibition": "inactive: -8.46%"}
{"smiles": "CCn1cc(C(=O)NCCc2ccc(OC)c(OC)c2)c(=O)c2cc(S(=O)(=O)N3CCCCCC3)ccc21", "activity change, negative = inhibition": "inactive: -5.54%"}
{"smiles": "CCc1ccc(N(CC)C(=O)Cn2nc(Cc3cccnc3)c3ccccc3c2=O)cc1", "activity change, negative = inhibition": "inactive: -24%"}
{"smiles": "COc1ccccc1NC(=O)c1oc2ccccc2c1NC(=O)COc1cccc(C)c1", "activity change, negative = inhibition": "inactive: -1.94%"}
{"smiles": "COc1ccc(Cl)cc1NC(=O)N(C)CCc1c(C)nn(C)c1C", "activity change, negative = inhibition": "inactive: 26.7%"}
{"smiles": "Cc1ccc2oc(-c3ccc(C)c(NC(=O)C(C)(C)Oc4ccc(Cl)cc4)c3)nc2c1", "activity change, negative = inhibition": "inactive: 48.9%"}
{"smiles": "CCc1cccc(-n2c(=O)c3cccnc3n2CC(=O)Nc2c(C)cc(C)cc2C)c1", "activity change, negative = inhibition": "inactive: -7.09%"}
{"smiles": "COc1cc(S(=O)(=O)NCCc2c(C)[nH]c3ccccc23)c(C)cc1C", "activity change, negative = inhibition": "inactive: -13.9%"}
{"smiles": "COc1ccc2nc(N(Cc3cccnc3)C(=O)Cc3ccccc3)sc2c1", "activity change, negative = inhibition": "inactive: -23.9%"}
{"smiles": "CC(=O)N1CCc2cc(S(=O)(=O)C(C)CC(=O)Nc3ccc(Br)c(C)c3)ccc21", "note": "(stereo not given)", "activity change, negative = inhibition": "inactive: -24.9%"}
{"smiles": "CC(=O)Nc1ccc(S(=O)(=O)NC2=NCN(CCO)CN2)cc1", "activity change, negative = inhibition": "inactive: -7.31%"}
{"smiles": "Fc1cccc(-c2nnn3c2nc(NC2CCCCC2)c2ccccc23)c1", "activity change, negative = inhibition": "inactive: -7.98%"}
{"smiles": "COc1ccc(NC(=O)C2=C(C)Nc3ncnn3C2c2cccn2C)cc1", "note": "(stereo not given)", "activity change, negative = inhibition": "inactive: -12.2%"}
{"smiles": "COc1ccccc1CNC(=O)CN1C(=O)COc2ccc(S(=O)(=O)NC3CCCC3)cc21", "activity change, negative = inhibition": "inactive: 1.95%"}
{"smiles": "CC1CCN(CC2CCN(C(=O)Nc3ccc(Br)cc3F)CC2)CC1", "activity change, negative = inhibition": "inactive: -2.8%"}
{"smiles": "Cc1cccc(-n2c(CNC(=O)c3cccc(F)c3)nnc2SCC(=O)Nc2ccccc2F)c1", "activity change, negative = inhibition": "inactive: -8.59%"}
{"smiles": "COc1ccc(Cc2cnc(N)nc2N)cc1OC", "activity change, negative = inhibition": "inactive: -2.03%"}
{"smiles": "Cc1noc(C)c1S(=O)(=O)N(CC(=O)NCCc1ccccc1)c1ccc(C(C)C)cc1", "activity change, negative = inhibition": "inactive: -13.7%"}
{"smiles": "CCOCCCN1C(=O)c2ccccc2CC1(C)C(=O)NC1CCCCC1", "note": "(stereo not given)", "activity change, negative = inhibition": "inactive: -15.1%"}
{"smiles": "COC(=O)c1ccccc1NC(=O)c1sc2nc(C)cc(C)c2c1NC(=O)c1ccccc1OC", "activity change, negative = inhibition": "inactive: -10.4%"}
{"smiles": "COc1ccc(CNC(=O)CN2C(=O)CSc3ccc(S(=O)(=O)N4CCC(C)CC4)cc32)cc1", "activity change, negative = inhibition": "inactive: -21%"}
{"smiles": "COc1ccc(/C=C/C(=O)Nc2nc(-c3cccs3)ns2)cc1", "activity change, negative = inhibition": "inactive: -16.2%"}
{"smiles": "COc1ccc(-c2nc(S(=O)(=O)c3ccc(Cl)cc3)c(NCc3ccccc3)o2)cc1", "activity change, negative = inhibition": "inactive: -3.8%"}
{"smiles": "COc1cc(-c2nc(Cn3nnc(C(=O)Nc4cccc(Cl)c4)c3C)c(C)o2)cc(OC)c1OC", "activity change, negative = inhibition": "inactive: -0.6%"}
{"smiles": "COc1ccc(CNC(=O)C2CCC(CNS(=O)(=O)c3ccc4c(c3)CCCC(=O)N4)CC2)cc1", "note": "(stereo not given)", "activity change, negative = inhibition": "inactive: -24.3%"}
{"smiles": "Cc1ccc(-c2cn3c(n2)sc2cc(C(=O)NCCC4=CCCCC4)ccc23)cc1", "activity change, negative = inhibition": "inactive: 52.1%"}
{"smiles": "CCOC(=O)CSc1nc2c(sc3ccccc32)c(=O)n1CCO", "activity change, negative = inhibition": "inactive: -26.3%"}
{"smiles": "CCN(CC)CCCNc1ncnc2c1cnn2-c1ccc(C)c(C)c1", "activity change, negative = inhibition": "inactive: -10.3%"}
{"smiles": "Cc1csc2nc(COc3cccc(NC(=O)c4ccccc4F)c3)cc(=O)n12", "activity change, negative = inhibition": "inactive: 0.3%"}
{"smiles": "COc1ccc(OCC(O)Cn2c(NCCO)nc3c2c(=O)n(C)c(=O)n3C)cc1", "note": "(stereo not given)", "Potency": "active: 14.1 µM"}
{"smiles": "Cc1nn(CC(=O)N2CCN(c3ccc(Cl)cc3)CC2)c(=O)c2cccn12", "activity change, negative = inhibition": "inactive: 2.87%"}
{"smiles": "Cc1ccc2nc(COc3ccccc3NC(=O)c3ccc(F)cc3)cc(=O)n2c1", "activity change, negative = inhibition": "inactive: -12%"}
{"smiles": "O=C(CSc1nc2c([nH]c3ccccc32)c(=O)n1-c1ccc(Cl)cc1)c1ccccc1", "activity change, negative = inhibition": "inactive: -8.37%"}
{"smiles": "O=C(CSC1=Nc2ccccc2N=C(c2ccc(F)cc2)C1)Nc1ccccc1", "activity change, negative = inhibition": "inactive: -14.3%"}
{"smiles": "CCOc1ccc(NC(=O)c2c(NC(=O)Cc3ccccc3)sc3c2CCCCC3)cc1", "activity change, negative = inhibition": "inactive: 0.237%"}
{"smiles": "Cc1ccc(-n2c(=O)c3c(c4cc(C)ccc4n3C)n(CC(=O)N3CCCC3)c2=O)cc1", "activity change, negative = inhibition": "inactive: -7.01%"}
{"smiles": "CC(Cc1ccccc1)(NC(=O)CN)c1ccccc1", "note": "(stereo not given)", "activity change, negative = inhibition": "inactive: -1.85%"}
{"smiles": "COc1ccccc1CNC(=O)c1cn(C)c2ccc(S(=O)(=O)N(C)C3CCCCC3)cc2c1=O", "activity change, negative = inhibition": "inactive: -24.5% [at 11.5 µM]"}
